Laboratory results published in publication PMC3174244.
Results are given in words; binding and its absence hold for the method and conditions named. For some assays here: Binding seen in cells or lysates may run through a third protein. Some binding calls cover weakened binding; strength is not graded here. For some assays here: Where a sequence is shown, tags or fusion partners need not be part of it.

Experiments:
[1] = target: GST linked to the C-terminal 594-775 amino acids of ICP0 (GST-E52) (herpes simplex virus type-1 (HSV-1)) (UniProt P08393); assay: pull-down; only the target purified
[2] = target: SUMO-2, GAL4 DNA binding domain fusion (UniProt P61956); assay: two-hybrid
[3] = target: SUMO-3, GAL4 DNA binding domain fusion (UniProt P55854); assay: two-hybrid
[4] = target: SUMO-1, GAL4 DNA binding domain fusion (UniProt P63165); assay: two-hybrid
[5] = target: T1, pp71, GAL4 DNA binding domain fusion (UniProt P06726); assay: two-hybrid
T1 sequence: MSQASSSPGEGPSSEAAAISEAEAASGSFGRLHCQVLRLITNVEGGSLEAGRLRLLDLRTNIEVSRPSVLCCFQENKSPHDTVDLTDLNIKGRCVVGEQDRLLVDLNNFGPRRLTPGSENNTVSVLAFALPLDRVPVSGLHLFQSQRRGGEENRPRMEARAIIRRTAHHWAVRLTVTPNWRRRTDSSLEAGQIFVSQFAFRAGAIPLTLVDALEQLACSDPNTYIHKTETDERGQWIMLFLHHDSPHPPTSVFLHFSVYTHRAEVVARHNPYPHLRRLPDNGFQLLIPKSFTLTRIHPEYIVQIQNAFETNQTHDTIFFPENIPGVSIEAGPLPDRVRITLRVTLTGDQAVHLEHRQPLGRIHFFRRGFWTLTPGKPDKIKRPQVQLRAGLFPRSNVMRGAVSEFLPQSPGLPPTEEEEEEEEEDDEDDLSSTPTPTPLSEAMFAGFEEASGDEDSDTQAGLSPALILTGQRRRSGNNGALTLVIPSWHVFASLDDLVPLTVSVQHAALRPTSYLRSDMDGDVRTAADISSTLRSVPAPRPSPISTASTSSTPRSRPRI

His-tagged SUMO-1 (from UniProt P63165 1-97)
binding [1]: binds

His-tagged SUMO-2 (from UniProt P61956 1-95)
binding [1]: no binding

ICP0.1–388, GAL4 activation domain fusion (from UniProt P08393 1-388) (domain or fragment)
binding [2]: binds | binding [3]: binds

ICP0.1–775 (wt ICP0), GAL4 activation domain fusion (from UniProt P08393 1-775)
binding [2]: binds | binding [3]: binds | binding [4]: no binding

hDaxx, GAL4 activation domain fusion (from UniProt Q9UER7 1-740)
binding [5]: binds
